According to PubChem BioAssay AID1345082 (National Center for Advancing Translational Sciences (NCATS), 2018):
The whole screen tested about 94,000 compounds, of which about 4,000 (4.3%) were called active. Inconclusive means that the source gave no clear call. Such entries were picked first, then a sample of the others. Calls come from the whole dose curve; as a rule, active = well fitted inhibition curve with a large enough effect; inconclusive = small, poorly fitted or top-dose-only effect; inactive = no such curve, though single readings can be large or run the other way. Potencies beside an inconclusive call are fits to weak or partial responses and may not hold up.

Experiment: Cytotoxic Profiling in NIH 3T3 Cell Line of Diverse Libraries Using Quantitative High-Throughput Screening; note: nearly all actives have a fitted effect of over 55% in size
Conditions: NIH 3T3 viability, CellTiter-Glo ATP luminescence, 48-72 h; activity change, negative = cytotoxicity: at 96.7 µM (top of the series) unless noted; series mostly up to 96.7 µM
How it was run: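 Viability of NIH 3T3 cells after 48 or 72 hr compound treatment at 37 °C was assessed by CellTiter-Glo, with luminescence imaged following a 10 min room-temperature step.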
% is set by controls: 0 for no effect and ±100 for the full control effect; potency is the fitted concentration of half-maximal effect; tags give direction and shape of the fitted curve.

SMILES | Potency | activity change, negative = cytotoxicity
COC(=O)[C@@H]1Cc2ncn(Cc3ccc(Cl)cc3)c2CN1Cc1ccc(C(=O)O)cc1 | inconclusive: 89.1 µM [inhibitor, partial curve, poor fit] | –
CN(Cc1ccccc1)Cc1cn([C@H]2CO[C@H]3[C@@H]2OC[C@@H]3NS(=O)(=O)c2cccs2)nn1 | inconclusive: 89.1 µM [inhibitor, single point] | –
Cn1ncc2c(C(=O)NCc3cccc(Cl)c3)cc(-c3ccc(Cl)cc3)nc21 | inactive | –
CC(C)NC(=O)N(C)CC1CCOCC1 | inactive | –
COc1cccc(C(=O)N2CCC(OC3CCN(S(C)(=O)=O)CC3)CC2)c1 | inactive | –
O=C(NCc1cccs1)C1CCCN1Cc1ccc(-c2cncnc2)cc1 (stereo not drawn) | inconclusive: 31.6 µM [inhibitor, partial curve, poor fit] | –
O=C(Cc1cccc(Cl)c1)N1CCCC(C(=O)N2CCCC(c3nc4ccncc4[nH]3)C2)C1 (stereo not drawn) | inconclusive: 50.1 µM [inhibitor, partial curve, poor fit] | –
Cn1ccnc1CNC[C@H]1Cn2c(-c3ccc(Cl)cc3)cnc2CO1 | inconclusive: 35.5 µM [inhibitor, partial curve, poor fit] | –
Cc1cc(C(=O)N2C[C@@H](Oc3ccccc3)C[C@H]2C(=O)N2CCCC2)n(C)n1 | inactive | –
COc1ccc(-c2nc3c(c(-c4ccccc4)n2)CN(C(=O)c2ccccc2Cl)CC3)cc1 | inconclusive: 44.7 µM [inhibitor, partial curve] | –
CC(C)c1cnc(N2CCC(COc3ccc4c(cnn4CCC(=O)O)c3)CC2)nc1 | inconclusive: 28.2 µM [inhibitor, full curve, poor fit] | –
COc1cccc(-c2ccc(CN3CCCC(NC(=O)Nc4ccc(Cl)cc4)C3)cc2)c1 (stereo not drawn) | inconclusive: 56.2 µM [inhibitor, partial curve, poor fit] | –
Cc1cc(C)n(CCCN(C)C(=O)C2C3C(=O)N(CCC(C)C)C[C@@]34C=C[C@@H]2O4)n1 (stereo partly drawn) | inactive | –
O=C(NCCCc1ccccc1)c1ccc2nnc(-c3cc(F)ccc3F)n2c1 | inconclusive: 44.7 µM [inhibitor, partial curve, poor fit] | –
O=C(Nc1cccc(Cl)c1)C1CCCN(c2nc3ncccc3o2)C1 (stereo not drawn) | inconclusive: 44.7 µM [inhibitor, partial curve, poor fit] | –
COc1ccc(Cl)cc1-c1ccc2c(c1)C(=O)N1CCN(C(=O)c3ccccc3)C[C@@H]1C(=O)N2 | inconclusive: 50.1 µM [inhibitor, partial curve, poor fit] | –
CN(C)c1cccc(C(=O)N2CCC3(CC2)N=C(c2ccccc2)NO3)c1 | inactive | –
COc1cccc(-c2ccc(C(=O)N3CCC(C(=O)NCC4CC4)CC3)cc2)c1 | inconclusive: 50.1 µM [inhibitor, partial curve, poor fit] | –
O=C(Nc1cc(F)cc(F)c1)N1CC(c2noc(-c3ccncc3)n2)C1 | inconclusive: 56.2 µM [inhibitor, partial curve, poor fit] | –
CCOc1ccc(C(=O)Nc2cccc(-c3nnc4n3CCCC4)c2)cc1 | inconclusive: 50.1 µM [inhibitor, partial curve, poor fit] | –
O=C(Nc1ccc(Cl)cc1)NC1CCN(Cc2cccc(-c3cccs3)c2)CC1 | active: 12.6 µM | –

SMILES | Potency | activity change, negative = cytotoxicity
O=C(C1CCCN(Cc2cccc(-c3ccc(F)cc3F)c2)C1)N1CCCC1 (stereo not drawn) | inconclusive: 44.7 µM [inhibitor, partial curve, poor fit] | –
O=C(NC1CCCC1)c1ccc2nnc(C3CCOCC3)n2c1 | inactive | –
CN(C)C[C@@H]1CN(c2ccncn2)C[C@H]1NC(=O)c1nccc2ccccc12 | inactive | –
CCCCCCN1CCCC12Cc1ccccc1CNC2=O (stereo not drawn) | inconclusive: 89.1 µM [inhibitor, partial curve] | –
COc1cccc(CC(=O)N2CCCn3nc(C)c(-c4cccnc4N4CCOCC4)c32)c1 | inconclusive: 70.8 µM [inhibitor, single point] | –
CC(C)CNC(=O)N1CCCC(c2noc(COc3ccccc3F)n2)C1 (stereo not drawn) | inconclusive: 44.7 µM [inhibitor, partial curve, poor fit] | –
Cc1ccc(C2Cn3nnc(-c4noc(CNC(=O)c5ccccc5)n4)c3CO2)cc1 (stereo not drawn) | inactive | –
COc1cccc(C(O)c2nc(C(=O)NC3CCN(C)CC3)c(C)o2)c1 (stereo not drawn) | – | inconclusive: -30.3% [inhibitor] [at 138 µM]
COc1ccc(OCC(=O)N2CCC(Cc3nc(-c4ccc(OC)cc4)no3)CC2)cc1 | active: 14.1 µM | –
CC(C)c1nc2c(c(-c3ccc(O)cc3)n1)CCN(Cc1cccc3ccccc13)CC2 | inconclusive: 39.8 µM [inhibitor, partial curve, poor fit] | –
COc1cccc(-c2nc(N3CCOCC3)cc3c2CN(CC2CC2)C3=O)c1 | inconclusive: 89.1 µM [inhibitor, partial curve, poor fit] | –
CCC1Oc2ccc(NC(=O)c3cccs3)cc2CN(Cc2ccc(OC)cc2)C1=O (stereo not drawn) | inconclusive: 39.8 µM [inhibitor, partial curve] | –
COc1ccc(CC(=O)Nc2nc3c(s2)C[C@@H]2[C@](C)(CO)[C@H](O)CC[C@@]2(C)[C@@H]3CC(=O)NCCNC(C)=O)cc1 | inactive | –
COc1cccc(C(=O)N2CCCC(c3nn(-c4ccccn4)c(=O)[nH]3)C2)c1 (stereo not drawn) | inactive | –
CC(C)CCN1CC[C@@H]2OCC(=O)N(Cc3ccccc3)[C@H]2CC1 | inconclusive: 100 µM [inhibitor, single point] | –
CCCN(C)C(=O)Cc1ccc(N(Cc2ccc(C)cc2)C(=O)c2ccco2)cc1 | inconclusive: 50.1 µM [inhibitor, partial curve, poor fit] | –
Cc1cccc(C(=O)NCCC2CCN(C(=O)Nc3cc(F)ccc3F)CC2)c1 | inactive | –
COc1cccc(NC(=O)NC[C@H]2O[C@@H](CO)[C@@H](O)[C@H]2N2CCN(c3ccccc3OC)CC2)c1 | inactive | –
O=C(c1ccc(C(F)(F)F)cc1)N1CCC2(CC1)COc1ccccc1CN2 | inactive | –
O=c1c2c(n(Cc3ccccc3)n1-c1ccccc1)CN(Cc1ccc3[nH]ccc3c1)CC2 | inconclusive: 89.1 µM [inhibitor, partial curve, poor fit] | –
Cc1ccccc1CN1CC[C@H](c2nc3ccccc3s2)C1 | inconclusive: 56.2 µM [inhibitor, partial curve, poor fit] | –

SMILES | Potency | activity change, negative = cytotoxicity
O=C(Cc1ccc(F)cc1)N1CN=C(C2CCN(Cc3ccc(F)cc3)CC2)N1 | inconclusive: 50.1 µM [inhibitor, partial curve, poor fit] | –
CN(C)CCOCC1(C)COc2ccc(C(=O)NCc3ccc(F)cc3)cc2N1 (stereo not drawn) | inconclusive: 100 µM [inhibitor, single point] | –
O=C(C1CCCCc2nnc(-c3ccccc3)n21)N1CCCC1 (stereo not drawn) | inactive | –
COc1ccc(OC)c(-c2nc3c(C)cccc3cc2CN2CCN(C)CC2)c1 | inconclusive: 56.2 µM [inhibitor, partial curve, poor fit] | –
O=C1N(CCc2ccccc2)CCOC12CCN(Cc1ccc(F)cc1)CC2 | inconclusive: 89.1 µM [inhibitor, partial curve] | –
O=C(Nc1ccccc1)Nc1ccc([C@H]2OCC(=O)N(Cc3ccccc3)[C@@H]2CO)cc1 | active: 89.1 µM | –
C[S+](=O)([O-])N1Cc2ccccc2CC12CN(C(=O)c1ccc(Cl)nc1)C2 | inconclusive: 79.4 µM [inhibitor, partial curve, poor fit] | –
Cc1nc2cccnc2n1CC1CCCN(S(=O)(=O)c2ccc(F)c(Cl)c2)C1 (stereo not drawn) | inconclusive: 44.7 µM [inhibitor, partial curve, poor fit] | –
COc1ccccc1-c1cccc(C(=O)N2CCC[C@H]2C(=O)N2CCC(c3ccccc3)CC2)c1 | inconclusive: 44.7 µM [inhibitor, partial curve, poor fit] | –
Cc1ccc([S+](=O)([O-])N2CCC(C(=O)N3CCCC(c4nc5ncccc5[nH]4)C3)CC2)cc1 (stereo not drawn) | inconclusive: 28.2 µM [inhibitor, partial curve, poor fit] | –
O=C(NC1CCN(Cc2ccc(-c3ccsc3)cc2)C1)c1ccc(Cl)cc1 (stereo not drawn) | inactive | –
O=C(NCCc1ccccc1F)c1nc2sccn2c1Br | inconclusive: 44.7 µM [inhibitor, partial curve] | –
O=C(Nc1ccc(F)c(Cl)c1)C1=NO[C@@H]2CN(CCc3ccccc3)C[C@H]12 | inconclusive: 56.2 µM [inhibitor, partial curve, poor fit] | –
N#Cc1ccc(CN2CCC3(CC2)OCCN(CCc2ccccc2)C3=O)cc1 | inconclusive: 50.1 µM [inhibitor, partial curve, poor fit] | –
COC(=O)Nc1cc(-c2ccccn2)nn1-c1ccccc1 | inactive | –
COc1ccc(C(=O)NC2CCN(c3cn[nH]c(=O)c3)CC2)cc1OC | inactive | –
Cc1ccc(-c2cn3c(n2)CO[C@@H](CNC(C)C)C3)cc1 | inconclusive: 126 µM [inhibitor, single point] | –
c1ccc2c(c1)CCN2c1nccnc1OC1CCNC1 (stereo not drawn) | inactive | –
CN1CCCN(C(=O)C2CCCCc3nnc(-c4ccccc4)n32)CC1 (stereo not drawn) | inconclusive: 31.6 µM [inhibitor, partial curve, poor fit] | –
CN(C)C(=O)c1nc(-c2ccccc2)c2ccccn12 | inconclusive: 79.4 µM [inhibitor, partial curve, poor fit] | –
CN(C)CC1(O)CCC2(CCN(S(=O)(=O)c3ccccc3)CC2)CC1 | inconclusive: 50.1 µM [inhibitor, partial curve, poor fit] | –
